Laboratory results as given in the BET-seq Pho4 binding data (Le et al. 2018).
Some of the results follow. Values were computed here from the reads of four pooled replicates and scatter widely.

The sequences below were run against T1, Pho4 (S. cerevisiae) (UniProt P07270) (assay: relative binding free energy (BET-seq); higher = weaker binding). Conditions: reference: library average.
T1 sequence: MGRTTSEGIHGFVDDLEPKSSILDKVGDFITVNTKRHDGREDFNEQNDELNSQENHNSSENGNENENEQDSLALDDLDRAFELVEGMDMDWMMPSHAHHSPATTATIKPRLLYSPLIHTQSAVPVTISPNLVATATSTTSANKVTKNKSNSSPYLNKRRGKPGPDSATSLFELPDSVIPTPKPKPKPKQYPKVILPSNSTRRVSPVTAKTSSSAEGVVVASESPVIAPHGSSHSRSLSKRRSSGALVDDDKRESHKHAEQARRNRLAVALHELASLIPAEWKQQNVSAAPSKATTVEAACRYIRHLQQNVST

Sequence	relative binding free energy
GTAAGCACGTGTGGAT	-0.01 kcal/mol
AAAATCACGTGAGTTG	0.26 kcal/mol
TTCTGCACGTGATGGA	0.11 kcal/mol
GTTGTCACGTGCGCGG	-0.04 kcal/mol
CTTAACACGTGGAGGT	-0.09 kcal/mol
TTTTCCACGTGTTGTC	0.04 kcal/mol
GGTCACACGTGGTTGA	0.06 kcal/mol
GGACTCACGTGTGGTT	0.3 kcal/mol
ATTAACACGTGTCGGG	0.09 kcal/mol
GATAGCACGTGCGGGC	-0.04 kcal/mol
TATTACACGTGGTTTA	0.14 kcal/mol
TTCGACACGTGTGGAG	0.21 kcal/mol
TTACTCACGTGGGCGT	0.11 kcal/mol
AGTTACACGTGTCTGT	0.18 kcal/mol
ATTGACACGTGTAATG	0.18 kcal/mol
GGGGGCACGTGTGTGC	0.02 kcal/mol
TGCTGCACGTGGAAGG	0.04 kcal/mol
GATCCCACGTGGTGGG	-0.04 kcal/mol
GGTTCCACGTGCGGTG	0.03 kcal/mol
TTTATCACGTGTATCG	0.01 kcal/mol
GGTTTCACGTGGAGAT	0.3 kcal/mol
GTCGCCACGTGGTGTT	-0.09 kcal/mol
TCAGGCACGTGTTTTT	-0.04 kcal/mol

Sequence	relative binding free energy
ACTAGCACGTGAAGGT	0.15 kcal/mol
GTGGCCACGTGCGTGG	-0.09 kcal/mol
TCGTACACGTGGTGGT	-0.01 kcal/mol
TTTTGCACGTGGGGCA	-0.11 kcal/mol
GTGAGCACGTGATATA	0.06 kcal/mol
TTTATCACGTGGTACG	0.13 kcal/mol
CGTGTCACGTGTACAG	0.11 kcal/mol
TTTGGCACGTGTAGTC	0.11 kcal/mol
TCAAGCACGTGGGGTG	-0.31 kcal/mol
CGCCGCACGTGTGGGG	0.02 kcal/mol
CAGTTCACGTGAGTTA	0.49 kcal/mol
ATTTACACGTGTGAAT	0.29 kcal/mol
TGACGCACGTGGCGTT	-0.1 kcal/mol
TCAGGCACGTGGTTAA	-0.22 kcal/mol
TTGCACACGTGATGTT	0.23 kcal/mol
GAATGCACGTGGGTAT	-0.07 kcal/mol
AGAGGCACGTGGTTAT	-0.07 kcal/mol
AATACCACGTGGTTGT	0.05 kcal/mol
TTGGACACGTGGTGCT	-0.01 kcal/mol
GGCGACACGTGGGAGG	0.09 kcal/mol
ACTGACACGTGGTGGG	-0.13 kcal/mol
ACCGGCACGTGGTGGA	-0.08 kcal/mol
AGTCGCACGTGGTTGA	-0.2 kcal/mol

Sequence	relative binding free energy
GTGGCCACGTGGCCTG	-0.1 kcal/mol
GTTTACACGTGGGAGG	0.09 kcal/mol
TGTCACACGTGTATTA	0.11 kcal/mol
TTGGTCACGTGTCCGA	0.14 kcal/mol
GGAGGCACGTGACAGG	0 kcal/mol
TTATGCACGTGCGGTT	-0.07 kcal/mol
AGTGTCACGTGTCGTT	0.17 kcal/mol
GAGTACACGTGTGTAT	0.16 kcal/mol
AGTATCACGTGGCTTG	0.07 kcal/mol
TGTCGCACGTGTAGAG	-0.07 kcal/mol
TTGTACACGTGACAGG	0.02 kcal/mol
TGATACACGTGGAAGT	0.22 kcal/mol
TGTTGCACGTGAGCGG	-0.01 kcal/mol
ATCGACACGTGATTGG	0.28 kcal/mol
AGTGACACGTGAGTTA	0.2 kcal/mol
TTGGCCACGTGTGGTG	0.03 kcal/mol
TATCGCACGTGAGTGT	0.05 kcal/mol
CCGGGCACGTGGGGCA	-0.32 kcal/mol
AGGAGCACGTGGATTA	0.03 kcal/mol
TAATTCACGTGTATTA	0.09 kcal/mol
GATTTCACGTGAGTTC	0.47 kcal/mol
AGTATCACGTGATCTG	0.23 kcal/mol
TGGTCCACGTGTGAGT	0.07 kcal/mol

Sequence	relative binding free energy
GGTATCACGTGCTTAT	0.26 kcal/mol
TGAAGCACGTGTGGGC	-0.02 kcal/mol
AGTTACACGTGGCTTT	0.13 kcal/mol
TGGCTCACGTGAAGGG	0.17 kcal/mol
GTTTTCACGTGCTGGC	0.41 kcal/mol
GAGCGCACGTGTTGGA	0.09 kcal/mol
GGTGCCACGTGTTGTA	-0.04 kcal/mol
TGTGTCACGTGTGGGC	0.09 kcal/mol
TAGCGCACGTGCGTTG	-0.22 kcal/mol
AGAAGCACGTGGGTTT	-0.18 kcal/mol
AAGGTCACGTGGTGAG	0.14 kcal/mol
ACTTTCACGTGGGGTG	0.11 kcal/mol
GTCGGCACGTGATGTT	0.1 kcal/mol
GGGGTCACGTGCGCGC	-0.02 kcal/mol
TGATGCACGTGCAATG	0.15 kcal/mol
GAGAGCACGTGGGTGG	-0.08 kcal/mol
ATCAACACGTGATGGT	0.18 kcal/mol
TAAGACACGTGGGGGC	-0.07 kcal/mol
GGTGGCACGTGGCTTC	-0.19 kcal/mol
GGTGTCACGTGATGGG	0.26 kcal/mol
GGAGTCACGTGGATAG	0.08 kcal/mol
CTTGGCACGTGGTAAA	-0.12 kcal/mol
ACTGGCACGTGATGTA	-0.04 kcal/mol

Sequence	relative binding free energy
GTGGACACGTGGTCGG	-0.01 kcal/mol
ATGTTCACGTGCGTAT	0.29 kcal/mol
TGTCACACGTGAGTAT	0.27 kcal/mol
TGGGTCACGTGAGACG	0.33 kcal/mol
ATTGGCACGTGGTGAT	-0.1 kcal/mol
TTATGCACGTGTTGTG	-0.03 kcal/mol
TTTAGCACGTGGGGAT	-0.15 kcal/mol
TGACTCACGTGGTAGG	0.09 kcal/mol
ATTTACACGTGATTCT	0.25 kcal/mol
TTAATCACGTGGATAT	0.12 kcal/mol
GGGGGCACGTGCGGAG	-0.21 kcal/mol
GAGAGCACGTGTCTGG	-0.05 kcal/mol
AGTAACACGTGTTAGA	0.04 kcal/mol
GAGGACACGTGGTTGG	0.1 kcal/mol
GGTTTCACGTGAGATT	0.38 kcal/mol
TTTTGCACGTGGGTCA	-0.12 kcal/mol
GTGTGCACGTGGTGAC	-0.03 kcal/mol
GTGGCCACGTGAATTG	0.25 kcal/mol
GTTAACACGTGTTTCG	0.09 kcal/mol
GATGTCACGTGCTGGA	0.2 kcal/mol
GAGTTCACGTGGGCTG	0.16 kcal/mol
GGATACACGTGATGGT	0.29 kcal/mol
AGGGTCACGTGGTTAA	-0.04 kcal/mol
